# In the supplement of paper PMC3334620:
# In all, about 33,000 sequences were measured (“E-score (-0.5 to 0.5)”: median about -0.021, highest 2% from about 0.32 on). This is one part of the list.
# Target: T1, Zap1 (UniProt P47043)
# T1 sequence: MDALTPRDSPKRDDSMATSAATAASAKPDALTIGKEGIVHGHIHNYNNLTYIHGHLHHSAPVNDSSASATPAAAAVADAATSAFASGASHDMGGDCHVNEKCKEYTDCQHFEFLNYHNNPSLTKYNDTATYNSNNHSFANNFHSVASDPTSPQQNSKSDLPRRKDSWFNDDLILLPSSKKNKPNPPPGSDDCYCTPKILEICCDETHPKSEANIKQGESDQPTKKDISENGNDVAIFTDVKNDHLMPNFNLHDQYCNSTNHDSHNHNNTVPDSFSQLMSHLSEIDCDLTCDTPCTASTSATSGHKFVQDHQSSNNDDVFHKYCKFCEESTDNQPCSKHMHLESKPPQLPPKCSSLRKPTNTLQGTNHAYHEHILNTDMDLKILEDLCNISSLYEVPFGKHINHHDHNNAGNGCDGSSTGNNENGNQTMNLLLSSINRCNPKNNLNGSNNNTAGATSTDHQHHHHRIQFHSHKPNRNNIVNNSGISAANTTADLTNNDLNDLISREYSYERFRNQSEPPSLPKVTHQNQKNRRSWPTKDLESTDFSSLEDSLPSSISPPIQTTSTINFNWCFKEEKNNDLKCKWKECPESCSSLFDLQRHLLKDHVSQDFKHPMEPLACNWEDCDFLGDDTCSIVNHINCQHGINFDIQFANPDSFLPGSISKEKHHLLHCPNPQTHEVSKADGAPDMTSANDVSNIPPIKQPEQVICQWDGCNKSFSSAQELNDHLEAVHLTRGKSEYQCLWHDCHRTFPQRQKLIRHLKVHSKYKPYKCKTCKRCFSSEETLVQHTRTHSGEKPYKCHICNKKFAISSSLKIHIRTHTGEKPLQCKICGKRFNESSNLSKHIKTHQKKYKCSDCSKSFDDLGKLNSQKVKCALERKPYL
# Experiment: PBM E-score (8-mer binding enrichment) (E-score (-0.5 to 0.5)); higher = stronger / more preferred TF binding; most listed sequences are background and not binding sites
# Conditions: protein concentration: 200 nM; construct: GST-full length
# Procedure, shortened: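 For each ungapped eight-base word taken together with its reverse complement, the Universal PBM Analysis Suite assigned an E-score. Binding data came from GST-tagged yeast transcription factors, applied at about 100-200 nM, on universal all-10-mer Agilent arrays made double-stranded by primer extension. Fluorescent anti-GST marked bound protein, and scans were normalised with masliner.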
row,Sequence,PBM E-score
1,CGATGCAG,-0.138
2,GAATCAAA,0.0114
3,ATACTTAC,0.133
4,AAGAAGAA,-0.00276
5,GCGATATA,-0.0223
6,ATGTCGCA,-0.0839
7,CAGAGGGA,-0.236
8,AGTCGTTG,-0.159
9,ATACGCGC,-0.0945
10,CGGAACAC,0.0931
11,CCTACCGC,0.148
12,AGGTGTTC,0.0381
13,CAGGGGGG,-0.22
14,AGCTATTG,0.0683
15,TCTTACCA,0.0272
16,TGCATTAA,0.0493
17,AGGGACGA,-0.117
18,CAAGTAGA,-0.123
19,CCGGCAAC,-0.039
20,CTAGGAAA,-0.0218
21,CCGTCCCG,-0.21
22,ATGACTGG,-0.2
23,GAGCTATC,-0.0171
24,CCTTATGC,0.0959
25,GCGGCGGA,-0.0684

row,Sequence,PBM E-score
1,GTCCAGAA,-0.0234
2,GAGATGGC,-0.0104
3,GTCCCTGA,-0.0852
4,AGGTGGGG,0.25
5,CGTCACCC,0.2
6,CATAGCGA,-0.0788
7,CACTTTCG,-0.159
8,CACAGTTC,-0.0558
9,AAAATGGC,-0.0463
10,AAAGTCCA,0.123
11,GAACGAAC,-0.0025
12,AGCCTGGA,-0.188
13,AGGGCTAG,-0.185
14,ACTATCCT,-0.111
15,AATCCCTA,0.123
16,CTCAACTA,0.121
17,AGACAGAC,0.172
18,AGGGTCAG,0.24
19,GTAGACTA,-0.102
20,ATATAGAA,0.0773
21,AGTCGAGG,0.0295
22,TAATAGAA,0.171
23,CCTTGGGA,0.173
24,ACTTACCA,0.0218
25,ACCCCGAC,0.163

row,Sequence,PBM E-score
1,CGGGCTAA,-0.222
2,CATAGTGG,-0.198
3,AGAAGCAG,-0.0952
4,AGCCGTGG,-0.0798
5,CTCTGGTA,0.225
6,ACAAGGTG,0.192
7,GACGAGGA,-0.295
8,TATCGCGA,0.238
9,ACCAACTG,-0.0627
10,AGATCGTC,-0.184
11,AGGCCGAA,-0.102
12,GACATTAC,0.0741
13,GGCGATAA,0.0372
14,CACATCCC,-0.104
15,ATGATGAA,0.288
16,ATTTAGCC,-0.0172
17,CCATTTAC,0.138
18,ACCACTAT,0.138
19,AAAGAGGT,0.307
20,ACTGAGGA,-0.125
21,AAGGGATT,-0.119
22,ACCCAGCG,-0.00828
23,CTTGCATA,0.0374
24,AGCAGATA,-0.17
25,ATTTTGAA,0.126

row,Sequence,PBM E-score
1,GACTCAAC,-0.166
2,ATTTACGG,0.229
3,GATACAAC,0.182
4,TGCATGAA,0.009
5,CCACTAAC,0.14
6,CACCGTCG,-0.122
7,GATAGAGC,-0.0954
8,ACTTTACG,-0.14
9,AAAGTTCA,-0.0948
10,TGCCAAAA,0.125
11,CGTGGGAA,-0.113
12,GTATTAAC,0.122
13,ATATGGAT,0.0428
14,ACCTTGCT,0.218
15,ATCCACTG,-0.129
16,ACAGCTAG,-0.35
17,TAGCGGAA,-0.0454
18,CGGCACGC,-0.245
19,GGGGATCA,-0.309
20,AAAGTCCC,-0.103
21,CAAAGCAC,0.084
22,CTGTCTTC,-0.256
23,ACTTCGGG,-0.172
24,ACACAGGG,-0.043
25,CCAATTGC,-0.158

row,Sequence,PBM E-score
1,GGGCTTGA,-0.153
2,TGCTGTAA,0.0973
3,AACCTGAA,0.144
4,CATGGCAA,0.00526
5,GCCGAACA,-0.0261
6,CCAACTAG,-0.0636
7,TTCAACAA,0.133
8,AAATTATT,0.171
9,CCCGAATA,0.0841
10,AAGTAGAC,0.00956
11,CGTACAGA,-0.231
12,GACGAATA,0.0813
13,AATATGAG,0.00046
14,ATCTTCAA,0.0279
15,AAGGAATG,0.0153
16,GGGGCGCA,-0.221
17,ACACGCTC,-0.0264
18,CAGACTCG,-0.293
19,ATCTAGCC,-0.151
20,ACATTGAA,-0.0827
21,ACCTCAGC,-0.0701
22,ATAACCTA,0.458
23,ATTAGCTC,-0.132
24,CCGCACCG,0.0399
25,CTTGCCGA,-0.193

row,Sequence,PBM E-score
1,AGCCTACA,0.0687
2,ACCGTGAA,0.194
3,AGGGCATG,-0.0339
4,GGGCCTGA,-0.201
5,CACTCGCC,-0.159
6,CAACAGCC,0.0171
7,CCGGTACA,0.149
8,CACGAAGA,0.186
9,ATGTCATC,-0.123
10,ACAGGTGC,-0.176
11,AGTGCCAG,-0.314
12,ACGGGCGA,-0.17
13,ACGTAGTA,0.0481
14,ACTGATGG,-0.199
15,CTAAGGAC,-0.133
16,TTAAGTAA,0.0417
17,GACAAAAC,0.156
18,ATTTATGC,-0.128
19,AGACTACA,-0.17
20,AATCGTCT,-0.136
21,CAGGTTCG,-0.158
22,ACGCTTAG,-0.181
23,AGGCGTCA,-0.143
24,AGTGTATG,-0.035
25,AAGCATTC,-0.0259

row,Sequence,PBM E-score
1,ATTCCGAG,0.00285
2,CGGGGACC,0.127
3,CACTGGCA,-0.147
4,CGGAGGCC,0.00069
5,CTATTGAA,0.0157
6,CCAGCTCG,-0.254
7,TCATACAA,0.156
8,ATATTCTG,0.134
9,CTTACGCA,-0.0487
10,AATACGTC,0.034
11,CTAAGGTA,0.263
12,ACTTGTCC,-0.151
13,ATTACATC,0.0593
14,ATTAGCGA,0.0335
15,AGATAAGG,0.112
16,ACAAGCCT,-0.199
17,AGGTATAT,0.115
18,GGTAGCTA,-0.064
19,TAGTGACA,0.11
20,GTCTGCAA,-0.0455
21,ATTGTCAG,-0.00687
22,AGCGACCC,0.0346
23,AGGGGATC,-0.242
24,CGTAATCC,0.107
25,GAGAGACA,-0.0771

row,Sequence,PBM E-score
1,ACTGTACC,0.0256
2,AGCCGCAG,-0.197
3,AGGTTAAA,0.376
4,ACACAGAC,0.134
5,CGAGGGCG,-0.162
6,ATATATGG,0.157
7,ACCATATC,0.00066
8,CAGCTTGA,-0.117
9,AGTCTAAG,0.118
10,AGTACATA,0.077
11,GCAGTTCC,-0.0983
12,ATTCTCAA,0.108
13,CCTCGTCA,0.0491
14,ACTCAGTG,-0.169
15,CCCTGTAA,0.195
16,CTAGTTGA,0.0622
17,AAAAAGCT,-0.0153
18,CTCACTAC,0.177
19,AATTAGAG,-0.111
20,GGCCGACC,0.00035
21,TATGCAAA,-0.0715
22,AAATGCTA,-0.0918
23,AGAATATA,-0.0634
24,AACGGGCA,-0.0723
25,AATGCATC,-0.124

row,Sequence,PBM E-score
1,AGGGTAAT,0.38
2,ACGATTCA,-0.0795
3,CGCTCCCC,-0.242
4,TCCTCAAA,-0.00867
5,AAGTCATA,0.0794
6,GATACTAA,0.0612
7,GATTGGAA,0.0332
8,AACCGGCG,0.0905
9,AGAGGGGA,-0.334
10,GTCTCACA,0.0106
11,GCAACCGC,0.214
12,ATGGAAAG,0.0699
13,ACGCAAGA,-0.0414
14,ACAGGTTG,0.147
15,CCGTTTCA,0.0816
16,CCACGCTA,-0.138
17,CAGTGTCA,0.0193
18,CTCTACGA,-0.0991
19,TACATAGA,-0.0363
